Some of the results follow.

Assay in all cases: glycan array binding signal (z-score within array); higher = stronger binding
Details in all cases: glycan notation: IUPAC condensed, linker removed

Assay [1] concerns the target Gal(b1-4)GlcNAc(b1-3)Gal(b1-4)GlcNAc(b1-2)Man(a1-3)[Gal(b1-4)GlcNAc(b1-3)Gal(b1-4)GlcNAc(b1-2)Man(a1-6)]Man(b1-4)GlcNAc(b1-4)[Fuc(a1-6)]GlcNAc. The method in brief:
(§1)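 Arrays were curated from the Consortium for Functional Glycomics database, 3228 in total, and kept only where the protein sequence was available. Binding is expressed as a within-array Z-score. This score was averaged across arrays of the same protein sequence at different concentrations or buffers and across linkers, and negative values can be read as non-binding.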

Assay [2] deals with Gal(b1-4)GlcNAc(b1-3)Gal(b1-4)GlcNAc(b1-2)[Gal(b1-4)GlcNAc(b1-3)Gal(b1-4)GlcNAc(b1-6)]Man(a1-6)[Gal(b1-4)GlcNAc(b1-3)Gal(b1-4)GlcNAc(b1-2)Man(a1-3)]Man(b1-4)GlcNAc(b1-4)GlcNAc. The method in brief: as §1
Assay [3] addresses Gal(b1-4)GlcNAc(b1-3)Gal(b1-4)GlcNAc(b1-2)[Gal(b1-4)GlcNAc(b1-3)Gal(b1-4)GlcNAc(b1-6)]Man(a1-6)[Gal(b1-4)GlcNAc(b1-3)Gal(b1-4)GlcNAc(b1-2)Man(a1-3)]Man(b1-4)GlcNAc(b1-4)[Fuc(a1-6)]GlcNAc. The method in brief: as §1
Assay [4] addresses Gal(b1-4)GlcNAc(b1-3)Gal(b1-4)GlcNAc(b1-3)Gal(b1-4)GlcNAc. The method in brief:
as §1

Assay [5] concerns the target Gal(b1-4)GlcNAc(b1-3)Gal(b1-4)GlcNAc(b1-3)Gal(b1-4)GlcNAc(b1-2)Man(a1-3)[Gal(b1-4)GlcNAc(b1-3)Gal(b1-4)GlcNAc(b1-3)Gal(b1-4)GlcNAc(b1-2)Man(a1-6)]Man(b1-4)GlcNAc(b1-4)GlcNAc. The method in brief: as §1
Assay [6] addresses Gal(b1-4)GlcNAc(b1-3)Gal(b1-4)GlcNAc(b1-3)Gal(b1-4)GlcNAc(b1-2)Man(a1-3)[Gal(b1-4)GlcNAc(b1-3)Gal(b1-4)GlcNAc(b1-3)Gal(b1-4)GlcNAc(b1-2)Man(a1-6)]Man(b1-4)GlcNAc(b1-4)[Fuc(a1-6)]GlcNAc. In a few lines: as §1
For assay [7], the target named is Gal(b1-4)GlcNAc(b1-3)Gal(b1-4)GlcNAc(b1-3)Gal(b1-4)GlcNAc(b1-2)[Gal(b1-4)GlcNAc(b1-3)Gal(b1-4)GlcNAc(b1-3)Gal(b1-4)GlcNAc(b1-6)]Man(a1-6)[Gal(b1-4)GlcNAc(b1-3)Gal(b1-4)GlcNAc(b1-3)Gal(b1-4)GlcNAc(b1-2)Man(a1-3)]Man(b1-4)GlcNAc(b1-4)[Fuc(a1-6)]GlcNAc. In a few lines: as §1
Assay [8] addresses Gal(b1-4)GlcNAc(b1-3)Gal(b1-4)GlcNAc(b1-3)Gal(b1-4)GlcNAc(b1-3)Gal(b1-4)GlcNAc(b1-2)Man(a1-3)[Gal(b1-4)GlcNAc(b1-3)Gal(b1-4)GlcNAc(b1-3)Gal(b1-4)GlcNAc(b1-3)Gal(b1-4)GlcNAc(b1-2)Man(a1-6)]Man(b1-4)GlcNAc(b1-4)GlcNAc. The method in brief: as §1
Assay [9] deals with Gal(b1-4)GlcNAc(b1-3)Gal(b1-4)GlcNAc(b1-3)Gal(b1-4)GlcNAc(b1-3)Gal(b1-4)GlcNAc(b1-2)Man(a1-3)[Gal(b1-4)GlcNAc(b1-3)Gal(b1-4)GlcNAc(b1-3)Gal(b1-4)GlcNAc(b1-3)Gal(b1-4)GlcNAc(b1-2)Man(a1-6)]Man(b1-4)GlcNAc(b1-4)[Fuc(a1-6)]GlcNAc. In a few lines: as §1
In assay [10] the target is Gal(b1-4)GlcNAc(b1-3)Gal(b1-4)GlcNAc(b1-3)Gal(b1-4)GlcNAc(b1-3)Gal(b1-4)GlcNAc(b1-2)[Gal(b1-4)GlcNAc(b1-3)Gal(b1-4)GlcNAc(b1-3)Gal(b1-4)GlcNAc(b1-3)Gal(b1-4)GlcNAc(b1-6)]Man(a1-6)[Gal(b1-4)GlcNAc(b1-3)Gal(b1-4)GlcNAc(b1-3)Gal(b1-4)GlcNAc(b1-3)Gal(b1-4)GlcNAc(b1-2)Man(a1-3)]Man(b1-4)GlcNAc(b1-4)[Fuc(a1-6)]GlcNAc. In a few lines:
as §1

The target in assay [11] is Gal(b1-4)GlcNAc(b1-3)Gal(b1-4)GlcNAc(b1-3)Gal(b1-4)GlcNAc(b1-3)Gal(b1-4)GlcNAc(b1-3)Gal(b1-4)GlcNAc(b1-2)Man(a1-3)[Gal(b1-4)GlcNAc(b1-3)Gal(b1-4)GlcNAc(b1-3)Gal(b1-4)GlcNAc(b1-3)Gal(b1-4)GlcNAc(b1-3)Gal(b1-4)GlcNAc(b1-2)Man(a1-6)]Man(b1-4)GlcNAc(b1-4)GlcNAc. In a few lines:
as §1

Assay [12] has as its target Gal(b1-4)GlcNAc(b1-3)Gal(b1-4)GlcNAc(b1-3)Gal(b1-4)GlcNAc(b1-3)Gal(b1-4)GlcNAc(b1-3)Gal(b1-4)GlcNAc(b1-2)Man(a1-3)[Gal(b1-4)GlcNAc(b1-3)Gal(b1-4)GlcNAc(b1-3)Gal(b1-4)GlcNAc(b1-3)Gal(b1-4)GlcNAc(b1-3)Gal(b1-4)GlcNAc(b1-2)Man(a1-6)]Man(b1-4)GlcNAc(b1-4)[Fuc(a1-6)]GlcNAc. The method in brief:
as §1

Assay [13] deals with Gal(b1-4)GlcNAc(b1-3)Gal(b1-4)GlcNAc(b1-3)Gal(b1-4)GlcNAc(b1-3)Gal(b1-4)GlcNAc(b1-3)Gal(b1-4)GlcNAc(b1-2)[Gal(b1-4)GlcNAc(b1-3)Gal(b1-4)GlcNAc(b1-3)Gal(b1-4)GlcNAc(b1-3)Gal(b1-4)GlcNAc(b1-3)Gal(b1-4)GlcNAc(b1-6)]Man(a1-6)[Gal(b1-4)GlcNAc(b1-3)Gal(b1-4)GlcNAc(b1-3)Gal(b1-4)GlcNAc(b1-3)Gal(b1-4)GlcNAc(b1-3)Gal(b1-4)GlcNAc(b1-2)Man(a1-3)]Man(b1-4)GlcNAc(b1-4)[Fuc(a1-6)]GlcNAc. In a few lines:
as §1

The target of assay [14] is Gal(b1-4)GlcNAc(b1-3)Gal(b1-4)GlcNAc(b1-3)Gal(b1-4)GlcNAc(b1-3)Gal(b1-4)GlcNAc(b1-3)Gal(b1-4)GlcNAc(b1-3)Gal(b1-4)GlcNAc(b1-2)Man(a1-3)[Gal(b1-4)GlcNAc(b1-3)Gal(b1-4)GlcNAc(b1-3)Gal(b1-4)GlcNAc(b1-3)Gal(b1-4)GlcNAc(b1-3)Gal(b1-4)GlcNAc(b1-3)Gal(b1-4)GlcNAc(b1-2)Man(a1-6)]Man(b1-4)GlcNAc(b1-4)GlcNAc. The method in brief: as §1
Assay [15] addresses Gal(b1-4)GlcNAc(b1-3)Gal(b1-4)GlcNAc(b1-3)GalNAc. In a few lines:
as §1

Assay [16] concerns the target Gal(b1-4)GlcNAc(b1-3)Gal(b1-4)GlcNAc(b1-3)[Gal(b1-4)GlcNAc(b1-3)Gal(b1-4)GlcNAc(b1-6)]GalNAc. In a few lines: as §1
Assay [17] concerns the target Gal(b1-4)GlcNAc(b1-3)Gal(b1-4)GlcNAc(b1-6)[Gal(b1-3)]GalNAc. In a few lines:
as §1

Assay [18] addresses Gal(b1-4)GlcNAc(b1-3)Gal(b1-4)[Fuc(a1-3)GlcNAc(b1-6)]Gal(b1-4)Glc. In a few lines: as §1
For assay [19], the target named is Gal(b1-4)GlcNAc(b1-3)Gal(b1-4)[Fuc(a1-3)]GlcNAc(b1-3)Gal(b1-4)[Fuc(a1-3)]GlcNAc. In a few lines: as §1
Assay [20] has as its target Gal(b1-4)GlcNAc(b1-3)GalNAc. In a few lines:
as §1

Assay [21] has as its target Gal(b1-4)GlcNAc(b1-3)[Fuc(a1-3)GlcNAc(b1-6)]Gal(b1-4)Glc. The method in brief: as §1
The target in assay [22] is Gal(b1-4)GlcNAc(b1-3)[Gal(b1-4)GlcNAc(b1-6)]Gal(b1-4)GlcNAc. In a few lines:
as §1

For assay [23], the target named is Gal(b1-4)GlcNAc(b1-3)[Gal(b1-4)GlcNAc(b1-6)]GalNAc. The method in brief: as §1

B1: Gal 9 (Homo sapiens), O00182 (protein)
chain: MAFSGSQAPYLSPAVPFSGTIQGGLQDGLQITVNGTVLSSSGTRFAVNFQTGFSGNDIAFHFNPRFEDGGYVVCNTRQNGSWGPEERKTHMPFQKGMPFDLCFLVQSSDFKVMVNGILFVQYFHRVPFHRVDTISVNGSVQLSYISFQNPRTVPVQPAFSTVPFSQPVCFPPRPRGRRQKPPGVWPANPAPITQTVIHTVQSAPGQMFSTPAIPPMMYPHPAYPMPFITTILGGLYPSKSILLSGTVLPSAQRFHINLCSGNHIAFHLNPRFDENAVVRNTQIDNSWGSEERSLPRKMPFVRGQSFSVWILCEAHCLKVAVDGQHLFEYYHRLRNLPTINRLEVGGDIQLTHVQT
Regarding B1, the “glycan array binding signal (z-score)” value in assay [1] turned out to be 3.15; in [2], 0.18; in assay [3] it was 2.43; in [4], 0.893; in assay [5], 2.36; in assay [6], 3.51. For the same molecule, the “glycan array binding signal (z-score)” value in [7] stood at 2.76; in [8] it was 1.11; in assay [9], 3.19; in assay [10], 9.56; in [11] it was 4.95; in [12], 4.2. In addition, the “glycan array binding signal (z-score)” value was 2.45 in [13]; 9.39 in assay [14]; -0.271 in [15]; -0.264 in assay [16]; -0.218 in assay [17]; 0.418 in assay [18]. Further, the “glycan array binding signal (z-score)” value in assay [19] is 0.383; in [20] it was -0.134; in [21] it was -0.285; in assay [22] it was 1.11; in [23], 0.824.

The values above are taken from the supplement of paper PMC8728848.
